Measurements from the supplement of paper PMC4967469.

Columns and labels:
Assay in all cases: Viability of human cancer cell lines after 72 h of drug (GDSC screen)
[1] = compound: O=C1NC(=O)c2c1c(-c1ccccc1Cl)cc1[nH]c3ccc(O)cc3c21 [Wee1 inhibitor 681640]; details: top dose 2 µM; top dose inferred
Procedure: (§1)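 Human cancer cell lines in 384-well plates, medium with 10% serum, drug for 72 h over a 256-fold dose range (nine 2-fold or five 4-fold steps up to the top dose). Adherent lines were fixed and stained with the nucleic acid dye Syto60, suspension lines read with resazurin; signal relative to control wells, capped at 0 and 100%. One two-parameter sigmoid per drug and line, fitted in a mixed model over all curves with the slope shared within a line.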

[2] = compound: CNC(=O)c1ccc(Nc2cc(Nc3ccccc3S(=O)(=O)C(C)C)c3cc[nH]c3n2)nc1 [HG-5-113-01]; details: top dose 10 µM; top dose inferred
Procedure: as §1

[3] = compound: Cc1ccc(-n2nc(C(C)(C)C)cc2NC(=O)Nc2ccc(OCCN3CCOCC3)c3ccccc23)cc1 [BIRB 0796]; details: top dose 10 µM; top dose inferred
Procedure: as §1

[4] = compound: O=C(c1cc(Cc2n[nH]c(=O)c3ccccc23)ccc1F)N1CCN(C(=O)C2CC2)CC1 [Olaparib]
Procedure: as §1

[5] = compound: Cc1cc(N2CCOCC2)cc2[nH]c(-c3c(NC[C@@H](O)c4cccc(Cl)c4)cc[nH]c3=O)nc12 [BMS-536924]; details: top dose 4 µM; screen: GDSC drug entry 1091; top dose inferred
Procedure: as §1

[6] = compound: NC(=O)c1ccc(N(C(N)=O)c2c(F)cccc2F)nc1-c1ccc(F)cc1F [VX-702]; details: top dose 2 µM; top dose inferred
Procedure: as §1

[7] = compound: Cc1cccc(-c2[nH]c(C(C)(C)C)nc2-c2ccc3nccnc3c2)n1 [SB-525334]; details: top dose 20 µM; top dose inferred
Procedure: as §1

[8] = compound: CC(C)=CC[C@@H](O)C1=CC(=O)c2c(O)ccc(O)c2C1=O [Shikonin]; details: top dose 16 µM; top dose inferred
Procedure: as §1

[9] = top dose 5 µM, screen: GDSC drug entry 1017, top dose inferred
[10] = top dose 10 µM, screen: GDSC drug entry 1495

Row | Cell Line | AUC [1] | pIC50 [1] | AUC [2] | pIC50 [2] | AUC [3] | pIC50 [3] | AUC [4, 9] | pIC50 [4, 9] | AUC [4, 10] | pIC50 [4, 10] | AUC [5] | pIC50 [5] | AUC [6] | pIC50 [6] | AUC [7] | pIC50 [7] | AUC [8] | pIC50 [8]
1 | NCI-H508 (large intestine, semi-adherent) | 0.972 | < 5.70 | 0.72 | 5.38 | 0.96 | < 5.00 | 0.934 | < 5.30 | 0.972 | < 5.00 | 0.881 | < 5.40 | 0.837 | < 5.70 |  |  |  | 
2 | NCI-H929 (myeloma, suspension) | 0.91 | < 5.70 | 0.642 | 5.84 | 0.887 | 5.08 |  |  |  |  | 0.57 | 6.42 | 0.883 | 5.80 |  |  |  | 
3 | NCI-N87 (stomach, adherent) | 0.902 | < 5.70 | 0.77 | 5.25 | 0.942 | < 5.00 | 0.979 | < 5.30 | 0.959 | < 5.00 | 0.935 | < 5.40 | 0.979 | < 5.70 |  |  |  | 
4 | OC-314 (ovary, adherent) | 0.969 | < 5.70 | 0.731 | 5.60 | 0.986 | < 5.00 | 0.991 | < 5.30 | 0.908 | < 5.00 | 0.977 | < 5.40 | 0.991 | < 5.70 | 0.967 | < 4.70 |  | 
5 | OCI-LY7 (B-cell lymphoma, suspension) | 0.902 | 5.89 | 0.621 | 5.91 | 0.978 | < 5.00 | 0.997 | < 5.30 |  |  | 0.945 | 5.44 | 0.973 | < 5.70 |  |  |  | 
6 | OVKATE (ovary, adherent) | 0.979 | < 5.70 | 0.942 | < 5.00 | 0.967 | < 5.00 | 0.979 | < 5.30 | 0.977 | < 5.00 | 0.951 | < 5.40 | 0.979 | < 5.70 | 0.884 | < 4.70 |  | 
7 | QGP-1 (pancreas, adherent) | 0.98 | < 5.70 | 0.889 | < 5.00 | 0.905 | < 5.00 | 0.883 | < 5.30 | 0.954 | < 5.00 | 0.896 | < 5.40 | 0.939 | < 5.70 | 0.908 | < 4.70 |  | 
8 | RCC-ER (kidney, adherent) | 0.951 | < 5.70 | 0.794 | 5.28 | 0.928 | < 5.00 | 0.986 | < 5.30 | 0.984 | < 5.00 | 0.871 | < 5.40 | 0.985 | < 5.70 | 0.986 | < 4.70 |  | 
9 | RPMI-7951 (melanoma, adherent) | 0.89 | < 5.70 | 0.801 | 5.33 | 0.978 | < 5.00 | 0.984 | < 5.30 |  |  | 0.957 | < 5.40 |  |  | 0.959 | < 4.70 | 0.218 | 6.81
10 | SK-LU-1 (lung adenocarcinoma, adherent) | 0.741 | 6.12 | 0.693 | 5.59 | 0.957 | < 5.00 |  |  | 0.887 | < 5.00 | 0.873 | < 5.40 |  |  | 0.979 | < 4.70 | 0.46 | 
11 | SK-MEL-5 (melanoma, adherent) | 0.975 | < 5.70 | 0.824 | 5.11 | 0.959 | < 5.00 | 0.946 | < 5.30 | 0.968 | < 5.00 | 0.929 | < 5.40 | 0.965 | < 5.70 | 0.98 | < 4.70 |  | 
12 | SK-MEL-28 (melanoma, adherent) | 0.929 | < 5.70 | 0.855 | 5.11 | 0.986 | < 5.00 |  |  | 0.979 | < 5.00 | 0.902 | < 5.40 |  |  | 0.952 | < 4.70 | 0.863 | 4.87
13 | SK-MG-1 (glioma, adherent) | 0.97 | < 5.70 | 0.854 | 5.10 | 0.887 | < 5.00 | 0.98 | < 5.30 | 0.964 | < 5.00 | 0.97 | < 5.40 | 0.981 | < 5.70 | 0.978 | < 4.70 |  | 
14 | SU-DHL-10 (B-cell lymphoma, suspension) | 0.998 | < 5.70 | 0.782 | 5.52 | 0.995 | < 5.00 |  |  | 0.997 | < 5.00 | 0.995 | < 5.40 |  |  | 0.983 | < 4.70 | 0.086 | 7.04
15 | VMRC-LCD (lung adenocarcinoma, adherent) | 0.987 | < 5.70 | 0.668 | 5.78 | 0.989 | < 5.00 | 0.993 | < 5.30 | 0.975 | < 5.00 | 0.971 | < 5.40 | 0.993 | < 5.70 |  |  |  | 
16 | ZR-75-30 (breast, adherent) | 0.983 | < 5.70 | 0.904 | < 5.00 | 0.939 | < 5.00 | 0.983 | < 5.30 | 0.981 | < 5.00 | 0.937 | < 5.40 | 0.983 | < 5.70 |  |  |  | 

pIC50: −log10 of the molar value. By IC50 is meant the dose at which the fit gives 50% viability; fits outside the tested doses are given as limits. For AUC the same curve is integrated over the 256-fold range of doses and scaled to a fraction: 1 means no effect, lower means more sensitive. An inferred top dose comes from the curve model; the source does not state it. For some of these results: Where an entry number is given, a second screen of the drug exists; the two often differ.
